From PMC11398866
Like-named read-outs stand apart in the source and are kept apart here. No constants are given. Whether binding was seen depends on the method and setting. Binding seen in cells or lysates may run through a third protein. Some results given as binding are weak or reduced against the parent protein; the word gives no strength. For some assays here: Where a sequence is shown, tags or fusion partners need not be part of it.

Protein sequences, listed by entry. Tags and fused reporters are not part of them.
UniProt O60238: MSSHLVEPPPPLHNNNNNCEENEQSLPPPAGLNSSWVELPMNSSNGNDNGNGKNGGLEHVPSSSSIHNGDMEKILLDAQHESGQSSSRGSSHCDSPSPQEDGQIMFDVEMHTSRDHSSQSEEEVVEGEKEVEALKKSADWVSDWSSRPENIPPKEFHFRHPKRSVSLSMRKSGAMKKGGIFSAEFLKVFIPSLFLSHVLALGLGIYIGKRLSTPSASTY
UniProt Q04207: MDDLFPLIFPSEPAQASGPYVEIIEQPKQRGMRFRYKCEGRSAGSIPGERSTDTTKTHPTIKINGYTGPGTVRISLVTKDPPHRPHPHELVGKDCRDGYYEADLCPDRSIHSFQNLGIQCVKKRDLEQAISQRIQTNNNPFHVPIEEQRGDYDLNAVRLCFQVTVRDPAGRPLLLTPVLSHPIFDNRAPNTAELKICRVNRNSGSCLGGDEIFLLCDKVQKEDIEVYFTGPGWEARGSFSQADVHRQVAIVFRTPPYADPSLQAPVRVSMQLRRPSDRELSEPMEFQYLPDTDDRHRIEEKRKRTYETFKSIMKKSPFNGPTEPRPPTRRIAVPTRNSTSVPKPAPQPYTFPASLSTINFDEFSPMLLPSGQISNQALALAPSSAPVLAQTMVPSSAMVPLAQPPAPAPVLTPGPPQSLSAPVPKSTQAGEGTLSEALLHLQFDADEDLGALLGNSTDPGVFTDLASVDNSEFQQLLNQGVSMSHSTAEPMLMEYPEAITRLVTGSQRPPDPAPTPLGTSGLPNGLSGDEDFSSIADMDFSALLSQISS
UniProt P22366: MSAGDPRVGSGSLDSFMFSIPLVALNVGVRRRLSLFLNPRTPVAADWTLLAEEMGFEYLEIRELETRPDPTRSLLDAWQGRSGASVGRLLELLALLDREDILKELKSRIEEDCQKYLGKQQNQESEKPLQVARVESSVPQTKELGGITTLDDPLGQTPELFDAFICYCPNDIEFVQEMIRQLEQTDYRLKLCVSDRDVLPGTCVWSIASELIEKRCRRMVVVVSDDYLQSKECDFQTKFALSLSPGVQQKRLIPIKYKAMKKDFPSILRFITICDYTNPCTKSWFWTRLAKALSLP
UniProt Q04206: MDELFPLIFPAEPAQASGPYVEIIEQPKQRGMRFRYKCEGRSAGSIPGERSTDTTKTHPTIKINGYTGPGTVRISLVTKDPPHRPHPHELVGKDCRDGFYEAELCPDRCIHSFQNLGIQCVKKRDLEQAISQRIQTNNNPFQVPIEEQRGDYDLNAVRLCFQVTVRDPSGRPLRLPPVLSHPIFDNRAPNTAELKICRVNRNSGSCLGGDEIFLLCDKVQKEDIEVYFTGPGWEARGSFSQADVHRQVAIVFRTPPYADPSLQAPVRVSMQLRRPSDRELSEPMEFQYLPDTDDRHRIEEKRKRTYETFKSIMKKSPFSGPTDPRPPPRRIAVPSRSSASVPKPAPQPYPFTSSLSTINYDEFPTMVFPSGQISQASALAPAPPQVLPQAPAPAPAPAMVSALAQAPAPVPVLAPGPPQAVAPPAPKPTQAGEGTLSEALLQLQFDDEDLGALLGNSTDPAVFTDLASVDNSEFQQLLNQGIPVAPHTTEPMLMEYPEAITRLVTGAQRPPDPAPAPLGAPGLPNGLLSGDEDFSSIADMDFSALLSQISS

Assays:
[1] = biological target: T1, Vangl2, endogenous in mouse bone marrow-derived macrophages (mouse (endogenous in BMDMs)) (UniProt Q91ZD4); experiment: co-IP; endogenous proteins; mouse BMDMs (WT and Vangl2-deficient) stimulated with LPS (100 ng/ml) for the indicated times; lysates immunoprecipitated with anti-p65 or anti-Vangl2 antibody or control IgG, protein A/G beads, immunoblot
T1 sequence: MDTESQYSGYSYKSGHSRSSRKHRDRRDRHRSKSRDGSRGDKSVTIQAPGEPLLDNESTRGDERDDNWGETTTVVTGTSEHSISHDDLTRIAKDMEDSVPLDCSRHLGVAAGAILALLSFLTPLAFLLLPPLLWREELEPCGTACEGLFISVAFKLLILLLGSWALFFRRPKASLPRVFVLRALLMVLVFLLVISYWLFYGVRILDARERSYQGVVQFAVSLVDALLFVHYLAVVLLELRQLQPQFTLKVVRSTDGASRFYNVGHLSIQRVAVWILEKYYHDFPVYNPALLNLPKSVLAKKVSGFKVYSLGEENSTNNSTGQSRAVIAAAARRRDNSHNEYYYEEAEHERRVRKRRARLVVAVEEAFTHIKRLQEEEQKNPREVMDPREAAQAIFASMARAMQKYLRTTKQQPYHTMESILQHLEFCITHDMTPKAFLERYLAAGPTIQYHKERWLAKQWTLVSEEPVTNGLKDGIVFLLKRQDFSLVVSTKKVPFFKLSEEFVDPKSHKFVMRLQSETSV

[2] = biological target: Flag-tagged p62 (sequestosome 1, SQSTM1) (UniProt Q13501); experiment: co-IP; HEK293T cells co-transfected with tagged plasmids; whole-cell lysates in low-salt lysis buffer; immunoprecipitation with anti-Flag beads, immunoblot; in some panels with or without co-expressed Myc-Vangl2, in WT, NDP52 KO or p62 KO cells, or after CQ and Baf-A1 for 8 hr
[3] = biological target: Flag-tagged Nix (UniProt O60238); experiment: as above
[4] = biological target: T2, Flag-tagged Vangl2 (UniProt Q9ULK5); experiment: as above
T2 sequence: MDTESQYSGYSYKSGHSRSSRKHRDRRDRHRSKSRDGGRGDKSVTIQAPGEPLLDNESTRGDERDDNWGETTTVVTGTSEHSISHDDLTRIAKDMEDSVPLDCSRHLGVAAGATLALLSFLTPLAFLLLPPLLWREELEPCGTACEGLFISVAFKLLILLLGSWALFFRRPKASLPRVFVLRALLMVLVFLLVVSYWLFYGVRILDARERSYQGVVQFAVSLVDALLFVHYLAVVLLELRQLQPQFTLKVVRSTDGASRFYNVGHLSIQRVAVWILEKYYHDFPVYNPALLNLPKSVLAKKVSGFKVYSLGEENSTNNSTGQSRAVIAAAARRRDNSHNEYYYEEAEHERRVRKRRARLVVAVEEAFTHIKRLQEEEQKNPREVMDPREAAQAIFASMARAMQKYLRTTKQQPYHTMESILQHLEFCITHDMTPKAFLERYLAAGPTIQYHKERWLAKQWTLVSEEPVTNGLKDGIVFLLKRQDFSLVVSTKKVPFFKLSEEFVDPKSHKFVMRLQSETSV

[5] = biological target: T3, Flag-tagged NDP52 (nuclear dot protein 52, CALCOCO2) (UniProt Q13137); experiment: as above
T3 sequence: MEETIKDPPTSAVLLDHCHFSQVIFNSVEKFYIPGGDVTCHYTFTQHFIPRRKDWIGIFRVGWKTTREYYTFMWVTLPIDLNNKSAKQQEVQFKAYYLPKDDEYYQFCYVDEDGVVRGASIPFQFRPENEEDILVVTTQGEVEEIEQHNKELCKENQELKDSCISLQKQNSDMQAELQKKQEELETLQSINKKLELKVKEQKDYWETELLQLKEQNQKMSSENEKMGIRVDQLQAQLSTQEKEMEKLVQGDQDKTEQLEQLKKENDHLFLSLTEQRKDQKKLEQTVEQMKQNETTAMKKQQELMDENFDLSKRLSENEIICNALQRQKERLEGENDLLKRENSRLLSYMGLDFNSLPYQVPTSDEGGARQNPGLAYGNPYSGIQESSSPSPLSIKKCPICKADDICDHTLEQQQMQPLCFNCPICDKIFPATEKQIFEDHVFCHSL

[6] = biological target: T4, Flag-tagged NBR1 (neighbor of BRCA1) (UniProt Q14596); experiment: as above
T4 sequence: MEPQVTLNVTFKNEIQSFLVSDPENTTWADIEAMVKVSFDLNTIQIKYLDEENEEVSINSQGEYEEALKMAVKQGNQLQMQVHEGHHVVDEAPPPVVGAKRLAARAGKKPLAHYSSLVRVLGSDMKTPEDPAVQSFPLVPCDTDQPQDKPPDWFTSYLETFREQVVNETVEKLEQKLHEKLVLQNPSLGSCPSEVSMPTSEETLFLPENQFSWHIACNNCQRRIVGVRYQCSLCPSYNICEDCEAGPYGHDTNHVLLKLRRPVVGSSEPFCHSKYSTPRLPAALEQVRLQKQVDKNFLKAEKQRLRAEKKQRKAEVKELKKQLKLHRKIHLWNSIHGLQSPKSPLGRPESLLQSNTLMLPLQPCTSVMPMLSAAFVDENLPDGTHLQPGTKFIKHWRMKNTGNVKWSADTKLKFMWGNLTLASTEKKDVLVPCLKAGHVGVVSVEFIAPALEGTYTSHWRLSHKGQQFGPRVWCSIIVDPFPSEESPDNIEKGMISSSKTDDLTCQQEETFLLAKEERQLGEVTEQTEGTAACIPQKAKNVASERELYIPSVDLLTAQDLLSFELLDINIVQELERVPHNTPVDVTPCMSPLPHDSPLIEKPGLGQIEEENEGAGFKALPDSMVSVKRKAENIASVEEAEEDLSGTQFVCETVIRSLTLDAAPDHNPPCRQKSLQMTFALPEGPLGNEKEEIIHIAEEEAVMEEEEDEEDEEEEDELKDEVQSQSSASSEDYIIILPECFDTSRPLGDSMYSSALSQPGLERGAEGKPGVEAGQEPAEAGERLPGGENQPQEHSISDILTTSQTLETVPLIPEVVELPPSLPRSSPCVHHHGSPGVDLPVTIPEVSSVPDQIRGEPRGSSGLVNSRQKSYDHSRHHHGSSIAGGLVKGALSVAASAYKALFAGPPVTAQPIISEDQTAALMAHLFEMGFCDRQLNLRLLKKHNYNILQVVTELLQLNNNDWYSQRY

[7] = biological target: T2, Flag-tagged Vangl2; experiment: co-IP; HEK293T cells transfected with Flag-Vangl2 and HA-p65, separated into cytoplasm, membrane and nucleus fractions; immunoprecipitation with anti-Flag beads, immunoblot
[8] = biological target: T1, Vangl2, endogenous in mouse bone marrow-derived macrophages (mouse (endogenous in BMDMs)); experiment: co-IP; endogenous proteins; mouse BMDMs (WT and Vangl2-deficient) stimulated with LPS (100 ng/ml) for the indicated times; lysates immunoprecipitated with anti-p65 or anti-Vangl2 antibody or control IgG, protein A/G beads, immunoblot; remark: listed apart in the source
[9] = biological target: p65, endogenous in mouse bone marrow-derived macrophages (mouse (endogenous in BMDMs)) (UniProt Q04207); experiment: as above

MyD88, endogenous in mouse bone marrow-derived macrophages (from UniProt P22366 1-296)
binding [1]: no binding

HA-tagged p65 (from UniProt Q04206 1-551)
binding [2]: binds
binding [3]: no binding
binding [4]: binds
binding [5]: binds
binding [6]: no binding
binding [7]: binds

B1: IKKα, endogenous in mouse bone marrow-derived macrophages (enzyme, UniProt Q60680 1-745)
chain: MERPPGLRPGAGGPWEMRERLGTGGFGNVSLYQHRELDLKIAIKSCRLELSSKNRERWCHEIQIMKKLDHANVVKACDVPEELNFLINDVPLLAMEYCSGGDLRKLLNKPENCCGLKESQILSLLSDIGSGIRYLHENKIIHRDLKPENIVLQDVGGKTIHKIIDLGYAKDVDQGSLCTSFVGTLQYLAPELFENKPYTATVDYWSFGTMVFECIAGYRPFLHHLQPFTWHEKIKKKDPKCIFACEEMTGEVRFSSHLPQPNSLCSLIVEPMESWLQLMLNWDPQQRGGPIDLTLKQPRCFALMDHILNLKIVHILNMTSAKIISFLLPCDESLHSLQSRIERETGINTGSQELLSETGISLDPRKPASQCVLDGVRGCDSYMVYLFDKSKTVYEGPFASRSLSDCVNYIVQDSKIQLPIIQLRKVWAEAVHYVSGLKEDYSRLFQGQRAAMLSLLRYNANLTKMKNTLISASQQLKAKLEFFRKSIQLDLERYSEQMTYGISSEKMLKAWKEMEEKAIHYSEVGVIGYLEDQIMSLHTEIMELQKSPYGRRQGDLMESLEQRAIDLYKQLKHRPPDHLYSDSTEMVKIIVHTVQSQDRVLKELFGHLSKLLGCKQKIIDLLPKVEVALSNIKEADNTVMFMQGKRQKEIWHLLKIACTQSSARSLVGSSLEGTVTPPVSAWLPPTLADREHPLTCVVTPQDGETLAQMIEENLNCLGHLSTIIREANEDQSSSLMSLDWSWLAE
binding [8]: no binding

B2: NDP52, endogenous in mouse bone marrow-derived macrophages (protein, UniProt A2A6M5 1-331)
chain: MDQCPIPTLLEHGNFSQVLFNNVEKFYAPRGDIMCYYTLTEKFIPRRKDWIGIFKVGWKTTQEYYTFMWAPLPKDQNKDSATQQEIQFKAYYLPKDVERYQFCYVDEDGLVRGTSVPFQFCPDPDEDIMVVINKEKVEEMEQLSEELYQQNQELKDKYADLHEQLQRKQVALEATQRVNKTLEHKVEEKASWEKEKASWEEEKASWEEEKASWEEEKASWEEEKASWEEEKASWEEEKASWEEEKASWEEEKASWEEEKASWEEEKASWEEEKASWEEEKASWEEEKASWEKEKASWEEEKASWEKEKAPWEVEKAPWKEVKAYWWNDLHR
binding [9]: binds

B3: Vangl2, endogenous in mouse bone marrow-derived macrophages (protein, UniProt Q91ZD4 1-521)
chain: MDTESQYSGYSYKSGHSRSSRKHRDRRDRHRSKSRDGSRGDKSVTIQAPGEPLLDNESTRGDERDDNWGETTTVVTGTSEHSISHDDLTRIAKDMEDSVPLDCSRHLGVAAGAILALLSFLTPLAFLLLPPLLWREELEPCGTACEGLFISVAFKLLILLLGSWALFFRRPKASLPRVFVLRALLMVLVFLLVISYWLFYGVRILDARERSYQGVVQFAVSLVDALLFVHYLAVVLLELRQLQPQFTLKVVRSTDGASRFYNVGHLSIQRVAVWILEKYYHDFPVYNPALLNLPKSVLAKKVSGFKVYSLGEENSTNNSTGQSRAVIAAAARRRDNSHNEYYYEEAEHERRVRKRRARLVVAVEEAFTHIKRLQEEEQKNPREVMDPREAAQAIFASMARAMQKYLRTTKQQPYHTMESILQHLEFCITHDMTPKAFLERYLAAGPTIQYHKERWLAKQWTLVSEEPVTNGLKDGIVFLLKRQDFSLVVSTKKVPFFKLSEEFVDPKSHKFVMRLQSETSV
binding [9]: binds

B4: IKKβ, endogenous in mouse bone marrow-derived macrophages (enzyme, UniProt O88351 1-757)
chain: MSWSPSLPTQTCGAWEMKERLGTGGFGNVIRWHNQATGEQIAIKQCRQELSPKNRNRWCLEIQIMRRLNHPNVVAARDVPEGMQNLAPNDLPLLAMEYCQGGDLRRYLNQFENCCGLREGAVLTLLSDIASALRYLHENRIIHRDLKPENIVLQQGEKRLIHKIIDLGYAKELDQGSLCTSFVGTLQYLAPELLEQQKYTVTVDYWSFGTLAFECITGFRPFLPNWQPVQWHSKVRQKSEVDIVVSEDLNGAVKFSSSLPFPNNLNSVLAERLEKWLQLMLMWHPRQRGTDPQYGPNGCFRALDDILNLKLVHVLNMVTGTVHTYPVTEDESLQSLKTRIQENTGILETDQELLQKAGLVLLPDKPATQCISDSKTNEGLTLDMDLVFLLDNSKINYETQITPRPPPESVSCILQEPKRNLSFFQLRKVWGQVWHSIQTLKEDCNRLQQGQRAAMMSLLRNNSCLSKMKNAMASTAQQLKAKLDFFKTSIQIDLEKYKEQTEFGITSDKLLLAWREMEQAVEQCGRENDVKHLVERMMALQTDIVDLQRSPMGRKQGGTLDDLEEQARELYRKLREKPRDQRTEGDSQEMVRLLLQAIQSFEKKVRVIYTQLSKTVVCKQKALELLPKVEEVVSLMNEDERTVVRLQEKRQKELWNLLKIACSKVRGPVSGSPDSMNVSRLSHPGQLMSQPSSACDSLPESDKKSEELVAEAHALCSRLESALQDTVKEQDRSFTTLDWSWLQMEDEERCSLEQACD
binding [8]: no binding
